This passage reports z-score results from PubChem BioAssay AID488969 (Vanderbilt High Throughput Screening Facility, 2010).

Structures are written as SMILES. In all, about 110,000 compounds were measured (“z-score”: median about -0.1, highest 2% from about 2 on). Some of the results follow. Active and inactive are the calls of the source.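 Rule for the calls: active = z-score in the third read window above 3 or below -3; inactive = the rest.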

The assay has as its target Metabotropic glutamate receptor 8 (Rattus norvegicus) (UniProt P70579). The experiment in a line: rat mGluR8 modulators via GIRK flux, primary screen, cell-based, thallium flux, HTS (AID 488969). The conditions noted are these: HEK293 rat mGluR8, GIRK (G protein-gated inwardly rectifying potassium channel) thallium flux, FluoZin2; at 10 µM; stronger effect = higher value; submaximal glutamate (EC20) added with thallium.
Chain of UniProt P70579 (P70579 whole entry, looked up): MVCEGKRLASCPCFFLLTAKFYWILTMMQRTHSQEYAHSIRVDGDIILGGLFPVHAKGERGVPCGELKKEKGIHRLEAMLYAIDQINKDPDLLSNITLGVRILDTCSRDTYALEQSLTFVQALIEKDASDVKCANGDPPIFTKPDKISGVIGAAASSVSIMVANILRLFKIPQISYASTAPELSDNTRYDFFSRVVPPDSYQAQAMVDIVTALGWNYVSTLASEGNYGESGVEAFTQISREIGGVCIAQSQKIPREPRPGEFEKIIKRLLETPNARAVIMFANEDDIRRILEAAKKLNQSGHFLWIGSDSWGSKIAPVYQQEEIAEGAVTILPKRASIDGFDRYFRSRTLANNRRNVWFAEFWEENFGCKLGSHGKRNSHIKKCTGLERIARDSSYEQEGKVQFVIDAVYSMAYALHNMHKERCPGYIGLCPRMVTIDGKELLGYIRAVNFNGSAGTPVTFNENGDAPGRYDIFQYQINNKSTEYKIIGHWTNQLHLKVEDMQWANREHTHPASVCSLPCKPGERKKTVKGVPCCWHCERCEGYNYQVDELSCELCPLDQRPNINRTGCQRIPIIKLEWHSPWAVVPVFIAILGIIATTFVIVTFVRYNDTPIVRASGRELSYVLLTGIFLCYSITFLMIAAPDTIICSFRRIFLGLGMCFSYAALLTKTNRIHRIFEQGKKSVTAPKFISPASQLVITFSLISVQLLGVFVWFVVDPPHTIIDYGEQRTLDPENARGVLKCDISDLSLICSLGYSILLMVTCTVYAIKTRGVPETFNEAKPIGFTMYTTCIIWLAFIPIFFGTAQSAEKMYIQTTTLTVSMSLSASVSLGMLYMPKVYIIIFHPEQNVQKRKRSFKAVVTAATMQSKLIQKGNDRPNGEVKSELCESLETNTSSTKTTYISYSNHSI
With `CC1=CC(C)(C)N(C(=O)CSc2ncn[nH]2)c2ccc(C)cc21`, the z-score was found to be 0.223.
The figure for `CCn1c(SCC(=O)c2c(N)n(C)c(=O)n(C)c2=O)nnc1-c1ccccc1` is -0.454; for `O=c1cc(Cn2ccnc2)c2cc3c(cc2o1)CCC3` it is -0.907.
For `Cc1cc(C(=O)Nc2ccccc2)c(C)o1`, the z-score came to 0.0608.
The figure for `CCc1ccc(CN(C(=O)c2cc3ccccc3oc2=O)C2CCS(=O)(=O)C2)cc1` (stereo not given) is -0.0477; for `COCc1cc(C)n(CC(=O)Nc2ccc(Cl)cc2Cl)c(=O)c1C#N` it is -0.169.
In the case of `Cc1cc(NC(=O)c2ccccc2-c2ccccc2)ccc1Br` it was -0.2; in that of `CCCC1(C(=O)OCC)NC(c2ccc(OC)cc2OC)C2C(=O)N(c3ccc4c(c3)OCCO4)C(=O)C21` (stereo not given), 0.33; in that of `COC(=O)c1ccc(C)c(NC(=O)CCSc2ccc(Cl)cc2)c1`, -0.0919.
The figure for `O=C(NCc1cccnc1)NC1CCCN1S(=O)(=O)c1ccc(Cl)cc1` (stereo not given) is -0.196.
Take `COc1cccc(C(=O)N2c3ccccc3Sc3ccccc32)c1`: the z-score is -0.594.
Molecule `CCNc1nc(N)nc(Oc2ccc(OCCOc3ccccc3)nn2)n1` had a z-score of -0.223.
The figure for `CCOc1ccc(OCCCC(=O)O)cc1` is -0.228.
The molecule `COc1ccc(OCC(=O)NCCCN2CCOCC2)cc1` registered a z-score of 0.807.
In turn, `C/C(=N\Nc1cc(Cl)nc(C)n1)c1ccc(C)cc1` yielded a z-score of -0.214.
`COC(=O)c1ccccc1NC(=O)Nc1cc(C)cc(C)n1` showed a z-score of 0.889.
The figure for `CN(C)CCCn1c(NCc2ccc3c(c2)OCO3)nc2ccccc21` is -0.352; for `Cc1ccc(-c2cc(C(=O)NCCc3ccccn3)c3ccccc3n2)c(C)c1` it is -0.736; for `Cc1ccc(S(=O)(=O)N2CCCC2)cc1C(=O)O` it is 0.0535.
In the case of `Clc1ccc(Cc2nc(-c3cccnc3)no2)cc1` it was 0.0204.
The figure for `CC1=CC(C)(C)Nc2ccc(OC(=O)C(Cc3ccccc3)N3C(=O)c4ccccc4C3=O)cc21` (stereo not given) is 1.05; for `O=C(CCCOc1ccc(Cl)cc1Cl)N/N=C/c1ccc(Cl)cc1` it is 0.0156.
`Cc1ccccc1NC(=O)C1c2cccc[n+]2CC(=O)N1c1c(C)cccc1C` (stereo not given) displayed a z-score of -0.34.
The figure for `COc1cc(NC(=O)c2ccco2)c(C(=O)OCC(=O)Nc2ncc(Cl)cc2Cl)cc1OC` is -0.275; for `O=[N+]([O-])c1ccc(NCCNS(=O)(=O)c2ccccc2)c(C(F)(F)F)c1` it is -0.328; for `COc1ccc(CCNc2oc(-c3ccc(OC)c(OC)c3)nc2C#N)cc1` it is -0.402.
In the case of `Cc1cc(C(=O)N/N=C/c2cc(N=Nc3ccccc3)ccc2O)n[nH]1` it was 0.249.
The figure for `Cc1ccc2ncnc(NCCCN3CCOCC3)c2c1` is 0.399; for `O=C(C1CCN(S(=O)(=O)c2cccc3cccnc23)CC1)N1CCCC1` it is 0.116.
As to `CC(=O)Nc1ccc2c(c1)CCC2=O`, the z-score came to 0.663.
On to `Cc1nc2ccc(S(=O)(=O)NCC(=O)N3CCc4ccccc43)cc2s1`, for which the z-score worked out at 0.0182.
In turn, `CC(C)(C)c1ccc2c(c1)OCC(C(=O)O)O2` (stereo not given) displayed a z-score of -0.0992.
In the case of `S=C(NN=C1CCCCCC1)Nc1ccc(Cl)cc1` it was active: 9.7; in that of `Cc1nc2cc(N3CCCCC3)c(NC(=O)c3cccnc3)cc2c(=O)n1Cc1ccccc1`, -0.332.
The molecule `COc1cc(-c2nnc(CSc3nnc(Nc4ccc(C(C)C)cc4)s3)o2)cc(OC)c1OC` displayed a z-score of 0.152.
In the case of `CCOc1ccc(C(=O)CSc2nnc(N)s2)cc1` it was -0.322; in that of `N=C1S/C(=C\c2cccc3ccccc23)C(=O)N1c1ccc(F)cc1`, -0.0772; in that of `Cc1c(C(=O)C(=O)NCCc2ccc(S(N)(=O)=O)cc2)c2ccccc2n1C`, -0.183.
The figure for `O=C(CSCc1ccc(Cl)cc1)N/N=C/c1ccc(OCC(=O)Nc2ccccc2)cc1` is -0.00465.
The figure for `O=C(NC1(C(F)(F)F)NC(=O)N(c2ccccc2)C1=O)c1cccs1` (stereo not given) is -0.132; for `COc1ccc(-n2c(C)cc(/C=N/Nc3nc(N4CCOCC4)nc(N4CCOCC4)n3)c2C)cc1` it is 0.604.
Turning to `COc1ccc(C(=O)Nc2nc3ccc(S(C)(=O)=O)cc3s2)cc1`, the z-score amounted to 0.0981.
In the case of `CCCNC(=O)c1cccc(COCC(F)(F)C(F)F)c1` it was -0.0567.
The figure for `CCSc1ncc(C#N)c(=O)[nH]1` is -0.267.
On to `Cc1sc2ncn(CC(=O)NCCN3CCOCC3)c(=O)c2c1S(=O)(=O)N1CCC(C)CC1`, for which the z-score was 0.00208.
`Nc1nonc1-c1nc2ccccc2n1Cc1ccc(F)cc1Cl`: the z-score was 0.0909.
In the case of `Cc1ccc(C(=O)CC2(O)C(=O)N(CCc3ccccc3)c3ccc(Br)cc32)o1` (stereo not given) it was -0.462; in that of `CCC(C)(C(=O)NC1CCCCC1)N(Cc1ccco1)C(=O)c1cnccn1` (stereo not given), 0.106.
The figure for `CCCC1NC(=S)N(C2CCCCC2)C1=O` (stereo not given) is 0.0696; for `O=C(Cn1cc(SCc2cccc(Cl)c2)c2ccccc21)N1CCOCC1` it is -0.143.
Turning to `CCc1c(O)nc(SCC(=O)NC(C)(C)C)n(-c2ccccc2)c1=O`, the z-score was -0.439.
In the case of `Cc1cc(C)nc(SC2CCCCC2NS(=O)(=O)c2ccc(Cl)cc2)n1` (stereo not given) it was -0.454.
In the case of `O=C(CSC(=S)N1CCOCC1)c1ccccc1` it was -0.26; in that of `O=C(CC12CC3CC(CC(C3)C1)C2)NCC(=O)OCc1cc(=O)oc2ccc3ccccc3c12`, -0.205.
As for `O=C(COc1ccc(S(=O)(=O)Nc2ccccc2)cc1)N1CCOCC1`, the z-score is 0.295.
In the case of `Cc1ccc(C(=O)CSc2nccn2-c2ccccc2)cc1` it was -0.266.
The figure for `COc1ccccc1-n1c(SCC(N)=O)nnc1-c1ccccc1` is -0.816; for `COC(=O)c1cccc(NC(=O)CCCOc2ccccc2)c1` it is -0.111; for `N#CC(c1nc2ccccc2nc1N1CCCC1)S(=O)(=O)c1ccccc1` (stereo not given) it is -0.235.
Take `Cc1ccc([N+](=O)[O-])cc1NC(=O)CCCOc1ccccc1`: the z-score is -0.134.
`CCCN1C(=O)c2cccc3c(N4CCCCC4)ccc(c23)C1=O` yielded a z-score of -0.337.
For the molecule `COC(=O)Cc1[nH]nc2c1C1(C(=O)N(Cc3ccccc3)c3ccccc31)C(C#N)=C(N)O2` (stereo not given), the z-score was found to be 0.121.
The figure for `O=S(=O)(c1cccc2cccnc12)N1CCN(c2ccccc2)CC1` is 0.0932; for `CCc1cc(=O)oc2cc(OC(C)=O)cc(OC(C)=O)c12` it is -0.0844.
In the case of `Cc1nn(-c2ccccc2)c(C)c1NC(=O)c1cccs1` it was -0.0112.
In the case of `O=C(Nc1ccc2c(c1)CCC2)c1cnccn1` it was -0.104; in that of `CC(C)(C)c1ccc(-c2noc(CCC(N)=O)n2)cc1`, 0.388; in that of `COc1cc(/C=C/C(=O)Nc2nnc(CC(C)C)s2)cc(OC)c1OC`, -0.317.
On to `Cn1c(=O)c2c(nc(SCCCC#N)n2Cc2c(F)cccc2Cl)n(C)c1=O`, for which the z-score is -1.91.
In the case of `CCOC(=O)C1CCN(C(=O)C2c3ccccc3C(=O)N(C)C2c2ccc(OC)cc2)CC1` (stereo not given) it was 0.537.
In the case of `CC1CCN(CC(O)COC2CCC(C(C)(C)C)CC2)CC1` (stereo not given) it was active: 4.18; in that of `COC(=O)C1(C)NC(c2cccs2)C2C(=O)N(c3ccc(F)cc3)C(=O)C21` (stereo not given), -0.124.
In the case of `O=C(CCN1C(=O)C2C3C=CC(C3)C2C1=O)NC1CCCc2ccccc21` (stereo not given), the z-score is -0.108.
`COc1ccc(OC2C(=O)N(c3ccc(F)cc3)C2c2ccc(OC)c(OC)c2)cc1` (stereo not given): the z-score was -0.361.
For the molecule `CSCCC(NC(=O)c1cc([N+](=O)[O-])cc([N+](=O)[O-])c1)c1nc2ccccc2[nH]1` (stereo not given), the z-score is -0.0904.
In the case of `O=C(Cn1cnc2ccccc2c1=O)Nc1ccc(-c2nnc3n2CCCCC3)cc1` it was -0.375; in that of `CC(C)CNS(=O)(=O)c1ccc(CCC(=O)O)cc1`, -0.0258; in that of `Cc1ccc(C(=O)CSc2nc3ccccc3c(=O)n2-c2ccccc2)s1`, 0.061.
The figure for `NC(=O)CC1Nc2cccc3cccc(c23)NC1=O` (stereo not given) is -0.21; for `CCN(Cc1cc2ccccc2[nH]c1=O)C(=O)C1CCCCC1` it is 0.0811.
`Cc1sc2ncnc(N[C@@H](Cc3c[nH]c4ccccc34)C(=O)O)c2c1C` displayed a z-score of 0.0177.
The figure for `CC(=O)Nc1ccc(S(=O)(=O)Nc2nc3ccccc3nc2Nc2ccccc2)cc1` is -0.7.
The molecule `FC(F)(F)c1ccccc1/C=N/N1CCN(Cc2ccccc2)CC1` yielded a z-score of -0.352.
The figure for `O=C(NC(=S)NC1C2CC3CC(C2)CC1C3)C12CC3CC(CC(C3)C1)C2` (stereo not given) is 0.0926; for `Cc1ccc(NC(=O)CSCC(=O)N2c3ccccc3CCc3ccccc32)cc1` it is -0.986; for `Cc1cc(/C=C(\C#N)C(=O)NC2CC2)c(C)[nH]1` it is 0.155.
Molecule `N#CC1=C(N)Oc2ccccc2C12C(=O)Nc1n[nH]c(-c3ccccc3)c12` (stereo not given) had a z-score of 0.824.
The figure for `O=S(=O)(c1ccc(S(=O)(=O)N2CCCN(Cc3ccccc3)C2)cc1)N1CCCCCC1` is -0.158; for `CC1=C/C(=N\Nc2ccccc2[N+](=O)[O-])CC(C)(C)C1` it is -0.268; for `O=C1Nc2cc(Cl)c(Cl)cc2N(O)N1c1cc(Cl)cc(Cl)c1` it is -0.38.
For the molecule `COc1cc(C)nc(NS(=O)(=O)c2ccccc2)n1`, the z-score stood at 0.541.
With `COc1ccc(C(=O)c2ccc(Cl)cc2Cl)cc1`, the z-score amounted to 0.127.
The figure for `O=C(c1ccccc1)c1cncc(Br)c1` is -0.00898; for `COc1ccccc1OCCOCCn1cnc2ccccc2c1=O` it is -0.162.
Regarding `CCOC(=O)/C(=N\Nc1cccc(C(F)(F)F)c1)N(CCOC)CCOC`, the z-score is -0.336.
The figure for `O=C(CN1CCN(S(=O)(=O)c2ccc(Cl)cc2)CC1)Nc1ccc(F)cc1F` is -0.415.
For `O=C(N/N=C/C=C\c1ccco1)c1cccnc1`, the z-score came out at 0.132.
The figure for `Cc1ccc(C)c(OCc2nnc(NC(=O)c3ccco3)s2)c1` is -0.431.
In the case of `O=C(COc1ccc(Cl)cc1)Nc1c(-c2cccs2)nc2ccccn12` it was -0.182.
In the case of `O=C(C1CCC1)N1CCc2cc(S(=O)(=O)NCc3cccnc3)ccc21` it was -0.0446.
The molecule `Cc1ccccc1C(=O)N1CCc2ccccc2C1` showed a z-score of -0.19.
In turn, `S=c1[nH]nc(-c2cc3ccccc3o2)n1Cc1ccccc1` registered a z-score of 2.66.
On to `O=Cc1ccc(OC(=O)C2CC(=O)N(c3ccc(F)cc3)C2)cc1` (stereo not given), for which the z-score was -0.495.
`CN(C)c1nccc(Nc2ccccc2)c1C#N` registered a z-score of 0.148.
`CCOC(=O)C(C)Sc1nc(-c2cccs2)ccc1C#N` (stereo not given) came in with a z-score of -0.643.
As for `O=C(OCc1ccccc1)C1CCCN1C(=O)c1ccccc1[N+](=O)[O-]` (stereo not given), the z-score is -0.114.
In the case of `CC(C)C(NC(=O)C12CC3CC(CC(C3)C1)C2)C(=O)N/N=C/C1=C(N2CCOCC2)C(=C\c2cccc([N+](=O)[O-])c2)/CC1` (stereo not given) it was -0.209; in that of `CC1CC2=C(C(=O)O1)C(c1ccc(Cl)cc1)Nc1ccccc1N2` (stereo not given), -0.122; in that of `Cc1ccc(-n2nc3c(N4CCN(c5ccccc5)CC4)nnc(C)c3c2C)cc1`, 0.128.
Regarding `Brc1cc(Br)c2nc(-c3cccs3)ccc2c1`, the z-score stood at 0.033.
